In PubChem BioAssay AID624417 (National Center for Advancing Translational Sciences (NCATS), 2012):
Hit rate of the full screen: of about 410,000 compounds, about 6,400 (1.6%) were called active. Inconclusive means that the source gave no clear call. Such entries were picked first, then a sample of the others. The call rests on the fitted dose curve; in most records, active means well fitted inhibition curve with a large enough effect; inconclusive means small, poorly fitted or top-dose-only effect; inactive means no such curve, though single readings can be large or run the other way. No potency is given beside an inconclusive call; the fits are too rough.

biological target: Glucagon-like peptide 1 receptor (Homo sapiens) (UniProt P43220); test: qHTS of GLP-1 Receptor Inverse Agonists (Inhibition Mode); conditions: HEK293 GLP-1R CRE-luciferase, luminescence, 24 h; Potency: GLP-1R form is constitutively active unless noted; series mostly up to 38.3 µM; further: nearly all actives have a fitted effect of over 55% in size
Sequence of UniProt P43220 (P43220 whole entry, looked up): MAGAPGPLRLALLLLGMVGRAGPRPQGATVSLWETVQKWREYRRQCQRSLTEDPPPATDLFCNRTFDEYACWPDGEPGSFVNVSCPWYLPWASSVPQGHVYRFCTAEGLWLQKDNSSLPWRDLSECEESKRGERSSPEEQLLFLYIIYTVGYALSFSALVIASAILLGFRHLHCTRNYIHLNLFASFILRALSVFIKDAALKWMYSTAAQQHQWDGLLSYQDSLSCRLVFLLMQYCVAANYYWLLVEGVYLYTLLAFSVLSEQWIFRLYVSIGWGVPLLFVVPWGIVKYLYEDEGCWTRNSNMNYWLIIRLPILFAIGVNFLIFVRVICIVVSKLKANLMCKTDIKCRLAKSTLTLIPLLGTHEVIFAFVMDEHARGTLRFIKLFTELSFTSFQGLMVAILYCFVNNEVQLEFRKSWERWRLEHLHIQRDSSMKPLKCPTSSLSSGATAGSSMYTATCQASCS
Procedure, shortened: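 Inverse agonism was detected as reduced cAMP-driven luciferase luminescence after 24 h compound treatment. The cells were HEK293 clones expressing constitutively active human GLP-1R with the reporter. Reporter-only and GPR119 cell lines served as counterscreen controls.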
Potency means the concentration at half of the fitted maximal effect; tags describe the fitted curve by direction and shape.

**Q.** With `CCOc1ccc(-c2c(C)n(-c3ccc(OCC)cc3)c3[n+]2CCCCC3)cc1` as the compound, how does the Potency read?
**A.** The Potency was inconclusive [inhibitor, full curve, poor fit].

**Q.** Which Potency does the source give for `N#CC(C#N)=NNc1ccc([N+](=O)[O-])cc1` here?
**A.** The Potency was active: 2.24 µM [setting not given].

**Q.** `O=C1NC(=O)N(c2cccc(Br)c2)C(=O)/C1=C/c1ccsc1` was tested. Which Potency did it give?
**A.** The Potency was inconclusive [inhibitor, single point].

**Q.** With `FC(F)(F)c1cc(-c2ccccc2)nc(N2CCCCCC2)n1` as the compound, how does the Potency read?
**A.** The Potency was inconclusive [inhibitor, single point].

**Q.** For `COc1ccc(-n2cnc3cc(C(=O)N4CCC5(CC4)OCCO5)ccc32)cc1`, which Potency is on record?
**A.** Its Potency is inconclusive [inhibitor, full curve, poor fit].

**Q.** `CC(C)c1ccc(NC(=O)c2ccc3c(c2)CCN3S(=O)(=O)c2ccccc2)cc1` was tested. Which Potency did it give?
**A.** Its Potency is inconclusive [inhibitor, full curve].

**Q.** `O=C1NC(=O)N(Cc2ccc(F)cc2)C(=O)/C1=C\C=C\c1ccco1` was tested. Which Potency did it give?
**A.** Its Potency is inconclusive [inhibitor, single point].

**Q.** With `CCOc1ccccc1NC(=O)c1ccccc1N(C)S(=O)(=O)c1ccc(C)cc1` as the compound, how does the Potency read?
**A.** Its Potency is inconclusive [inhibitor, partial curve, poor fit].

**Q.** For `CN(C)CCN(C(=O)c1ccc(S(=O)(=O)N2CCc3ccccc32)cc1)c1nc2ccc(F)cc2s1`, which Potency is on record?
**A.** Its Potency is inconclusive [inhibitor, partial curve, poor fit].

**Q.** Which Potency does the source give for `CCCCN1CC(=O)N2[C@H]3c4cc(C)ccc4OC[C@@H]3[C@H](c3ccccc3)[C@]2(C)C1=O` here?
**A.** The Potency was inconclusive [inhibitor, single point].

**Q.** Which Potency does the source give for `c1cc2c(cc1NC1=NCCO1)CCCC2` here?
**A.** Its Potency is inconclusive [inhibitor, single point].

**Q.** `COC(=O)c1ccc(Cl)c(NC(=O)CN2CCN(Cc3ccccc3)CC2)c1` was tested. Which Potency did it give?
**A.** The Potency was inconclusive [inhibitor, partial curve, poor fit].

**Q.** With `CCCCCn1cc(C(=O)C(=O)N2CCOCC2)c2ccccc21` as the compound, how does the Potency read?
**A.** The Potency was inconclusive [inhibitor, single point].

**Q.** With `Cc1cccc(OP(=O)(Nc2ccc(F)cc2)Oc2cccc(C)c2)c1` as the compound, how does the Potency read?
**A.** Its Potency is inconclusive [inhibitor, partial curve, poor fit].

**Q.** For `CC(C)(C)n1nnnc1C(CCc1ccccc1)N1CCC(n2c(=O)[nH]c3ccccc32)CC1` (stereo unspecified), which Potency is on record?
**A.** Its Potency is inconclusive [inhibitor, single point].

**Q.** Which Potency does the source give for `CCN(C(=O)COC(=O)c1cn(C)c2ccccc12)c1ccc(F)cc1` here?
**A.** Its Potency is inconclusive [inhibitor, single point].

**Q.** With `COC(=O)C1=C(C)NC(=S)NC1c1ccc(N(CCCl)CCCl)cc1Cl` (stereo unspecified) as the compound, how does the Potency read?
**A.** Its Potency is “inactive”.

**Q.** Which Potency does the source give for `Clc1cccc(/C=N\Nc2nccs2)c1` here?
**A.** The Potency was inconclusive [inhibitor, single point].

**Q.** How did the Potency turn out when `CC(C)c1ccc(NC(=O)Nc2nc(C(N)CCc3ccccc3)cs2)cc1` (stereo unspecified) was run?
**A.** The Potency was inconclusive [inhibitor, single point].

**Q.** How did the Potency turn out when `CC(=NCCCn1ccnc1)c1c(O)n(C)c(=O)n(C)c1=O` was run?
**A.** The Potency was “inactive”.

**Q.** Which Potency does the source give for `Cc1ccc(NC(=O)N(Cc2ccc3c(c2)OCO3)C2CCN(Cc3ccccc3)CC2)cc1F` here?
**A.** Its Potency is inconclusive [inhibitor, single point].

**Q.** With `CSc1ccc(CN2CCN(C(=O)Cc3ccccc3)CC2)cc1` as the compound, how does the Potency read?
**A.** Its Potency is inconclusive [inhibitor, single point].

**Q.** How did the Potency turn out when `CCCSc1ccc2nc(NC(=O)OC)[nH]c2c1` was run?
**A.** The Potency was inconclusive [inhibitor, full curve, poor fit].

**Q.** How did the Potency turn out when `O=C(N/N=C\c1ccc(COc2ccc([N+](=O)[O-])cc2)o1)c1cccc(Cl)c1` was run?
**A.** Its Potency is inconclusive [inhibitor, single point].

**Q.** For `Cc1ccccc1S(=O)(=O)N1C[C@H]2[C@H]3C(=O)N(C4CCCCC4)C(=O)[C@H]3CC(=O)[C@H]2[C@@H]1c1ccc(Cl)cc1`, which Potency is on record?
**A.** Its Potency is inconclusive [inhibitor, single point].

**Q.** For `COc1ccc(C(=O)N/N=C\c2coc3ccc(C)cc3c2=O)cc1`, which Potency is on record?
**A.** Its Potency is inconclusive [inhibitor, single point].

**Q.** With `O=[N+]([O-])c1cccc(NP(=O)(Oc2ccccc2)Oc2ccccc2)c1` as the compound, how does the Potency read?
**A.** Its Potency is inconclusive [inhibitor, partial curve, poor fit].

**Q.** How did the Potency turn out when `CC(Cc1ccccc1)/[N+]([O-])=C\c1ccc(C(F)(F)F)cc1` (stereo unspecified) was run?
**A.** The Potency was inconclusive [inhibitor, single point].

**Q.** How did the Potency turn out when `O=C(Cn1c(=O)oc2cc(S(=O)(=O)N3CCCCCC3)ccc21)NCc1ccccc1Cl` was run?
**A.** Its Potency is inconclusive [inhibitor, partial curve, poor fit].

**Q.** With `COc1ccc(CN2CCN(Cc3ccccc3OC)CC2)cc1` as the compound, how does the Potency read?
**A.** The Potency was “inactive”.

**Q.** With `CC(=NCC1CCCO1)c1c(O)n(-c2ccccc2C)c(=O)[nH]c1=O` (stereo unspecified) as the compound, how does the Potency read?
**A.** Its Potency is “inactive”.

**Q.** Which Potency does the source give for `O=C(O)c1sccc1Oc1ccc(F)cc1[N+](=O)[O-]` here?
**A.** Its Potency is inconclusive [inhibitor, single point].

**Q.** With `COc1cccc(CC(=O)N2CCN(Cc3cccc(Cl)c3)CC2)c1` as the compound, how does the Potency read?
**A.** Its Potency is inconclusive [inhibitor, single point].

**Q.** With `CCN(c1ccccc1)S(=O)(=O)c1ccc(C(=O)NC2CCCCC2)cc1` as the compound, how does the Potency read?
**A.** The Potency was inconclusive [inhibitor, single point].

**Q.** `C[C@H](CO)N1C[C@H](C)[C@@H](CN(C)S(=O)(=O)c2cccs2)Oc2ccc(NC(=O)Nc3ccc(C(F)(F)F)cc3)cc2C1=O` was tested. Which Potency did it give?
**A.** Its Potency is active: 8.91 µM.

**Q.** `OC(CN1CC=C(c2ccccc2)CC1)c1ccccc1` (stereo unspecified) was tested. Which Potency did it give?
**A.** The Potency was “inactive”.

**Q.** `CN1C(=O)/C(=C/C=C/c2ccco2)C(=O)NC1=S` was tested. Which Potency did it give?
**A.** Its Potency is “inactive”.

**Q.** Which Potency does the source give for `COc1ccc2ccc(O)c(CN3CC=C(c4ccccc4)CC3)c2c1` here?
**A.** Its Potency is inconclusive [inhibitor, single point].

**Q.** How did the Potency turn out when `COC(=O)[C@@]1(Cc2ccccc2)[C@H]2C(=O)N(Cc3ccccc3)C(=O)[C@H]2[C@H]2CN=C(SCc3ccc(C#N)cc3)N21` was run?
**A.** The Potency was inconclusive [inhibitor, single point].

**Q.** `C=CCc1c(C)nc(C)nc1N/N=C/c1ccc(N(C)C)cc1` was tested. Which Potency did it give?
**A.** The Potency was inconclusive [inhibitor, partial curve, poor fit].

**Q.** How did the Potency turn out when `CCOC(=O)C1(CCOc2ccccc2)CCN(Cc2cnc(SC)nc2)CC1` was run?
**A.** The Potency was inconclusive [inhibitor, single point].

**Q.** Which Potency does the source give for `O=c1cc(Nc2cccc(Br)c2)[nH]c(=O)[nH]1` here?
**A.** The Potency was inconclusive [inhibitor, single point].

**Q.** For `CN(Cc1cccc(-c2ccncc2)c1)C(=O)Oc1ccccc1Cc1ccccc1`, which Potency is on record?
**A.** Its Potency is inconclusive [inhibitor, single point].

**Q.** For `COc1ccc(C(CNC(=O)c2ccc3c(c2)CCC3)N(C)C)cc1` (stereo unspecified), which Potency is on record?
**A.** The Potency was inconclusive [inhibitor, single point].

**Q.** `COC(=O)C1=C(C(=O)OC)SC2(S1)C(C(=O)OC)=C(C(=O)OC)Sc1c2ssc1=O` was tested. Which Potency did it give?
**A.** Its Potency is inconclusive [inhibitor, partial curve, poor fit].

**Q.** `Cc1ccc(O)c(CN2CCN(c3ccccc3)CC2)c1` was tested. Which Potency did it give?
**A.** The Potency was inconclusive [inhibitor, single point].

**Q.** For `FC(F)(F)c1ccc2c(c1)N(CCCN1CCN(CCCl)CC1)c1ccccc1S2`, which Potency is on record?
**A.** The Potency was inconclusive [inhibitor, partial curve, poor fit].

**Q.** With `CC1CCCC(NC(=O)COC(=O)c2cn(C)c3ccccc23)C1C` (stereo unspecified) as the compound, how does the Potency read?
**A.** Its Potency is inconclusive [inhibitor, single point].

**Q.** For `O=C(CCC1CCCC1)c1c(O)c2ccccc2oc1=O`, which Potency is on record?
**A.** The Potency was inconclusive [inhibitor, single point].

**Q.** For `COC(=O)C1=C(c2ccc(-c3ccccc3)c(F)c2)C[C@@H]2CC[C@H]1N2C(=O)NC1Cc2ccccc2C1`, which Potency is on record?
**A.** The Potency was inconclusive [inhibitor, partial curve, poor fit].

**Q.** For `Cn1c(=O)oc2cc(NC(=O)CCl)ccc21`, which Potency is on record?
**A.** Its Potency is inconclusive [inhibitor, single point].

**Q.** With `Cc1cc(C)cc(-n2c(/C=C/c3cccc(F)c3)nc3ccccc3c2=O)c1` as the compound, how does the Potency read?
**A.** The Potency was “inactive”.

**Q.** With `O=C1NCN(c2ccccc2)C12CCN(C(c1ccccc1OC(F)(F)F)c1nnnn1Cc1ccccc1)CC2` (stereo unspecified) as the compound, how does the Potency read?
**A.** Its Potency is inconclusive [inhibitor, single point].

**Q.** With `COC(=O)C1=C(c2ccc(Cl)c(C(F)(F)F)c2)C[C@@H]2CC[C@H]1N2C(=O)NCCOc1ccc(OC)cc1` as the compound, how does the Potency read?
**A.** The Potency was inconclusive [inhibitor, single point].

**Q.** For `COc1ccc2[nH]c(C)c(CCNCc3cc(OC)c(OC)c(OC)c3)c2c1`, which Potency is on record?
**A.** Its Potency is inconclusive [inhibitor, single point].

**Q.** How did the Potency turn out when `O=C1NC(=O)C(=Cc2ccc(SC3CCCCC3)o2)C(=O)N1` was run?
**A.** Its Potency is inconclusive [inhibitor, single point].

**Q.** Which Potency does the source give for `COc1ccc(-n2c(-c3ccco3)nc3ccccc3c2=O)cc1` here?
**A.** The Potency was inconclusive [inhibitor, single point].

**Q.** For `Fc1cccc(F)c1CN1CCN(c2ccc(Cl)cc2)CC1`, which Potency is on record?
**A.** Its Potency is “inactive”.

**Q.** For `CN[C@H](C)[C@H](O)c1ccccc1`, which Potency is on record?
**A.** Its Potency is “inactive”.

**Q.** Which Potency does the source give for `Cc1ccccc1N1CCN(C2CCCN(C(=O)COc3ccccc3)C2)CC1` (stereo unspecified) here?
**A.** The Potency was inconclusive [inhibitor, partial curve, poor fit].

**Q.** `c1cc2c(cc1[C@H]1OC[C@H]3[C@@H]1CO[C@H]3c1ccc3c(c1)OCO3)OCO2` was tested. Which Potency did it give?
**A.** The Potency was inconclusive [inhibitor, single point].
